According to PMC9911399, “Two distinct binding modes provide the RNA-binding protein RbFox with extraordinary sequence specificity”:
Residue numbers refer to the chain shown, from its start. The list shows a part of the results.

T1: RBFOX1 RRM RbFoxmut (Fox-RRM*) (Homo sapiens, UniProt Q9NWB1 109-208, R118D;E147R;N151S;E152T)
T1 sequence: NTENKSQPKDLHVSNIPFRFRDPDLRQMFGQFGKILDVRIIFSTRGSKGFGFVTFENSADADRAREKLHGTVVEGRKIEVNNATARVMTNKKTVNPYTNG

B1: AGUGUAU (DNA:RNA)
RNA: GGGAGACCGGAAUUCAGAUUGUCCAGUGUAUUUAAAUCCCGUCGUAGCCACCA
DNA 1: CAATCTGAATTCCGGTCTCCC
DNA 2: TGGTGGCTACGACGGGATT
B2: UUGUAAC (DNA:RNA)
RNA: B1 RNA with A25U, G26U, U27G, G28U, U29A, U31C
DNA 1: CAATCTGAATTCCGGTCTCCC
DNA 2: TGGTGGCTACGACGGGATT
B3: UUCGAAU (DNA:RNA)
RNA: B1 RNA with A25U, G26U, U27C, U29A
DNA 1: CAATCTGAATTCCGGTCTCCC
DNA 2: TGGTGGCTACGACGGGATT
B4: UGUGUAC (DNA:RNA)
RNA: B1 RNA with A25U, U31C
DNA 1: CAATCTGAATTCCGGTCTCCC
DNA 2: TGGTGGCTACGACGGGATT
B5: UACAGAA (DNA:RNA)
RNA: B1 RNA with A25U, G26A, U27C, G28A, U29G, U31A
DNA 1: CAATCTGAATTCCGGTCTCCC
DNA 2: TGGTGGCTACGACGGGATT
B6: UAUAGAG (DNA:RNA)
RNA: B1 RNA with A25U, G26A, G28A, U29G, U31G
DNA 1: CAATCTGAATTCCGGTCTCCC
DNA 2: TGGTGGCTACGACGGGATT
B7: UAAAAGU (DNA:RNA)
RNA: B1 RNA with A25U, G26A, U27A, G28A, U29A, A30G
DNA 1: CAATCTGAATTCCGGTCTCCC
DNA 2: TGGTGGCTACGACGGGATT
B8: UCGCCGC (DNA:RNA)
RNA: GGGAGACCGGAAUUCAGAUUGUCCUCGCCGCUUAAAUCCCGUCGUAGCCACCA
DNA 1: CAATCTGAATTCCGGTCTCCC
DNA 2: TGGTGGCTACGACGGGATT
B9: CGUCGUU (DNA:RNA)
RNA: B1 RNA with A25C, G28C, U29G, A30U
DNA 1: CAATCTGAATTCCGGTCTCCC
DNA 2: TGGTGGCTACGACGGGATT
B10: UGAGAGC (DNA:RNA)
RNA: B8 RNA with C26G, G27A, C28G, C29A
DNA 1: CAATCTGAATTCCGGTCTCCC
DNA 2: TGGTGGCTACGACGGGATT
B11: UACGGCU (DNA:RNA)
RNA: B1 RNA with A25U, G26A, U27C, U29G, A30C
DNA 1: CAATCTGAATTCCGGTCTCCC
DNA 2: TGGTGGCTACGACGGGATT
B12: UGGGGAA (DNA:RNA)
RNA: B1 RNA with A25U, U27G, U29G, U31A
DNA 1: CAATCTGAATTCCGGTCTCCC
DNA 2: TGGTGGCTACGACGGGATT
B13: AACUUUA (DNA:RNA)
RNA: B1 RNA with G26A, U27C, G28U, A30U, U31A
DNA 1: CAATCTGAATTCCGGTCTCCC
DNA 2: TGGTGGCTACGACGGGATT
B14: UCGCUUU (DNA:RNA)
RNA: B8 RNA with C29U, G30U, C31U
DNA 1: CAATCTGAATTCCGGTCTCCC
DNA 2: TGGTGGCTACGACGGGATT
B15: UAGCGCA (DNA:RNA)
RNA: B8 RNA with C26A, C29G, G30C, C31A
DNA 1: CAATCTGAATTCCGGTCTCCC
DNA 2: TGGTGGCTACGACGGGATT
B16: ACACGCC (DNA:RNA)
RNA: B8 RNA with U25A, G27A, C29G, G30C
DNA 1: CAATCTGAATTCCGGTCTCCC
DNA 2: TGGTGGCTACGACGGGATT
B17: AGUUCGU (DNA:RNA)
RNA: B1 RNA with G28U, U29C, A30G
DNA 1: CAATCTGAATTCCGGTCTCCC
DNA 2: TGGTGGCTACGACGGGATT
B18: AGAAUCA (DNA:RNA)
RNA: B1 RNA with U27A, G28A, A30C, U31A
DNA 1: CAATCTGAATTCCGGTCTCCC
DNA 2: TGGTGGCTACGACGGGATT
B19: AUUGAUA (DNA:RNA)
RNA: B1 RNA with G26U, U29A, A30U, U31A
DNA 1: CAATCTGAATTCCGGTCTCCC
DNA 2: TGGTGGCTACGACGGGATT
B20: CAUCGGC (DNA:RNA)
RNA: B8 RNA with U25C, C26A, G27U, C29G
DNA 1: CAATCTGAATTCCGGTCTCCC
DNA 2: TGGTGGCTACGACGGGATT

target: T1, RBFOX1 RRM RbFoxmut (Fox-RRM*); experiment: EMSA; HiTS-Eq, 1 nM pool, 10 min; buffer printed only for the single-RNA assays: 10 mM Tris pH 7.5, 150 mM NaCl, 3.4 mM EDTA, 0.001% NP-40, 30 C; conditions: tags: His6 N-terminal (pET28a); label: 5' 32P
Procedure, shortened: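 Relative association constants, normalised to the cognate motif, were derived by comparing read counts of each RNA species with those of the control reaction. The RNA sequenced was the free fraction, separated by 8% native PAGE after a 10 min equilibration in 50 µL of 1 nM 5′-radiolabelled RNA (7 randomized nucleotides) with increasing concentrations of purified wild-type or mutant RbFox RRM.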

**Q.** With B1 as the binder, how does the binding signal read?
**A.** 0.162 KA relative to UGCAUGU

**Q.** Which binding signal does the source give for B2 here?
**A.** 0.115 KA relative to UGCAUGU

**Q.** How did the binding signal turn out when B3 was run?
**A.** 0.103 KA relative to UGCAUGU

**Q.** B4 was tested. Which binding signal did it give?
**A.** 0.129 KA relative to UGCAUGU

**Q.** B5 was tested. Which binding signal did it give?
**A.** 0.1 KA relative to UGCAUGU

**Q.** For B6, which binding signal is on record?
**A.** 0.117 KA relative to UGCAUGU

**Q.** Which binding signal does the source give for B7 here?
**A.** 0.058 KA relative to UGCAUGU

**Q.** Which binding signal does the source give for B8 here?
**A.** 0.0954 KA relative to UGCAUGU

**Q.** B9 was tested. Which binding signal did it give?
**A.** 0.108 KA relative to UGCAUGU

**Q.** How did the binding signal turn out when B10 was run?
**A.** 0.0841 KA relative to UGCAUGU

**Q.** With B11 as the binder, how does the binding signal read?
**A.** 0.101 KA relative to UGCAUGU

**Q.** Which binding signal does the source give for B12 here?
**A.** 0.142 KA relative to UGCAUGU

**Q.** B13 was tested. Which binding signal did it give?
**A.** 0.112 KA relative to UGCAUGU

**Q.** For B14, which binding signal is on record?
**A.** 0.0726 KA relative to UGCAUGU

**Q.** How did the binding signal turn out when B15 was run?
**A.** 0.124 KA relative to UGCAUGU

**Q.** With B16 as the binder, how does the binding signal read?
**A.** 0.109 KA relative to UGCAUGU

**Q.** For B17, which binding signal is on record?
**A.** 0.14 KA relative to UGCAUGU

**Q.** With B18 as the binder, how does the binding signal read?
**A.** 0.203 KA relative to UGCAUGU

**Q.** B19 was tested. Which binding signal did it give?
**A.** 0.114 KA relative to UGCAUGU

**Q.** B20 was tested. Which binding signal did it give?
**A.** 0.0843 KA relative to UGCAUGU
